# According to the supplement of paper PMC4604168 (melanoma cell lines):
# This is one part of the list. Many values rest on one well or one pass, so single values are uncertain.
# Key:
# Assay in all cases: cell count relative to DMSO control; melanoma cells; higher = more viable cells
# Conditions in all cases: library dose: low library concentration; 72 h
# [1] = system: MZ2-MEL
# [2] = system: MeWo
# [3] = system: RPMI7951
# [4] = system: RVH-421
# [5] = system: SkMel28
# [6] = system: SkMel2
# [7] = system: SkMel30
# [8] = system: SkMel5
# [9] = system: UACC257
# [10] = system: UACC62
# 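Further: cell number obtained by counting DAPI-stained nuclei in high-throughput microscope images with image analysis software, screen run in 1,536-well plates.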
SMILES,cell count [1] [%],cell count [2] [%],cell count [3] [%],cell count [4] [%],cell count [5] [%],cell count [6] [%],cell count [7] [%],cell count [8] [%],cell count [9] [%],cell count [10] [%]
"CCN(CC)CCNC(=O)c1c(C)[nH]c(/C=C2\C(=O)Nc3ccc(F)cc32)c1C [sunitinib] + COc1ccc(-c2ccc3c(N4CCOCC4)nc(N4C[C@@H](C)O[C@@H](C)C4)nc3n2)cc1CO [KU0063794] (first compound 0.4 µM, partner dose 0.02 µM)",110,86.1,116,123,81.8,106,61.2,99.5,78.4,80.3
"Cn1cnc2c(F)c(Nc3ccc(Br)cc3Cl)c(C(=O)NOCCO)cc21 [selumetinib] + COc1cc2c(Oc3ccc4[nH]c(C)cc4c3F)ncnc2cc1OCCCN1CCCC1 [cediranib] (first compound 0.015 µM, partner dose 0.4 µM)",80.6,98.5,103,76.1,93,86.6,83.2,109,101,80.7
"C[C@]1(O)C[C@@H](c2nc(-c3ccc4ccc(-c5ccccc5)nc4c3)c3c(N)nccn32)C1 + COc1cc(N2CCC(N3CCN(C)CC3)CC2)ccc1Nc1ncc(Cl)c(Nc2ccccc2S(=O)(=O)C(C)C)n1 [NVP-TAE684] (first compound 0.4 µM, partner dose 0.08 µM)",104,94.1,101,97.9,90,80.2,112,96.6,75.8,86.3
"CCN(CC)CCNC(=O)c1c(C)[nH]c(/C=C2\C(=O)Nc3ccc(F)cc32)c1C [sunitinib] + CO[C@@H]1[C@H](N(C)C(=O)c2ccccc2)C[C@H]2O[C@]1(C)n1c3ccccc3c3c4c(c5c6ccccc6n2c5c31)C(=O)NC4 [Midostaurin] (first compound 0.4 µM, partner dose 0.08 µM)",104,83.5,121,105,89.2,110,82.8,103,76.7,89.7
"C[C@]1(O)C[C@@H](c2nc(-c3ccc4ccc(-c5ccccc5)nc4c3)c3c(N)nccn32)C1 + CCN(CC)CCCCNc1ncc2cc(-c3cc(OC)cc(OC)c3)c(NC(=O)NC(C)(C)C)nc2n1 [PD173074] (first compound 0.4 µM, partner dose 0.1 µM)",102,87.4,90.2,74.5,98.3,83.3,95.9,104,78.9,102
"Cn1cnc2c(F)c(Nc3ccc(Br)cc3Cl)c(C(=O)NOCCO)cc21 [selumetinib] + CCc1ccc(CCOc2ccc(CC3SC(=O)NC3=O)cc2)nc1 [pioglitazone] (first compound 0.015 µM, partner dose 2 µM)",90.2,92.6,101,72.5,93.8,81.8,60,101,81.4,62.3
"C[C@]1(O)C[C@@H](c2nc(-c3ccc4ccc(-c5ccccc5)nc4c3)c3c(N)nccn32)C1 + Cc1ccc(NC(=O)c2cccc(N(C)C)c2)cc1NC(=O)c1ccc(O)cc1 [ZM336372] (first compound 0.4 µM, partner dose 2 µM)",81.6,105,70.4,74.4,85.6,92.4,93.5,80.4,79,101
"COc1cc([C@@H]2c3cc4c(cc3[C@@H](O[C@@H]3O[C@@H]5CO[C@@H](C)O[C@H]5[C@H](O)[C@H]3O)[C@H]3COC(=O)[C@H]23)OCO4)cc(OC)c1O [etoposide] + Oc1nc(-c2ccc(C(F)(F)F)cc2)nc2c1CSCC2 [XAV939] (first compound 0.02 µM, partner dose 2 µM)",94.1,93.4,91.3,91,90.8,89.6,99.5,93.6,92.4,80.2
"COc1cc([C@@H]2c3cc4c(cc3[C@@H](O[C@@H]3O[C@@H]5CO[C@@H](C)O[C@H]5[C@H](O)[C@H]3O)[C@H]3COC(=O)[C@H]23)OCO4)cc(OC)c1O [etoposide] + NC(=O)Nc1cc(-c2cccc(F)c2)sc1C(=O)N[C@H]1CCCNC1 [AZD7762] (first compound 0.02 µM, partner dose 0.02 µM)",106,87.9,84,123,120,99.3,96.5,108,97.3,75.5
"CCN(CC)CCNC(=O)c1c(C)[nH]c(/C=C2\C(=O)Nc3ccc(F)cc32)c1C [sunitinib] + CCN(CC)CCCCNc1ncc2cc(-c3cc(OC)cc(OC)c3)c(NC(=O)NC(C)(C)C)nc2n1 [PD173074] (first compound 0.4 µM, partner dose 0.1 µM)",110,88,109,104,86.6,118,58.8,114,98,60.7
"CCN(CC)CCNC(=O)c1c(C)[nH]c(/C=C2\C(=O)Nc3ccc(F)cc32)c1C [sunitinib] + O=C1NC(=O)/C(=C/c2ccc(-c3ccc(F)cc3O)o2)S1 [AS252424] (first compound 0.4 µM, partner dose 1 µM)",99.2,83.3,113,92.6,94.3,110,80.4,108,72.1,104
"CCN(CC)CCNC(=O)c1c(C)[nH]c(/C=C2\C(=O)Nc3ccc(F)cc32)c1C [sunitinib] + Oc1cc(-c2nc(-c3ccccc3)[nH]c2-c2ccncc2)ccc1Cl [L779450] (first compound 0.4 µM, partner dose 0.2 µM)",86.8,84.6,101,84.2,87,68.2,65.6,109,96.4,64
"COc1cc([C@@H]2c3cc4c(cc3[C@@H](O[C@@H]3O[C@@H]5CO[C@@H](C)O[C@H]5[C@H](O)[C@H]3O)[C@H]3COC(=O)[C@H]23)OCO4)cc(OC)c1O [etoposide] + OCCn1cc(-c2cnc3nnn(Cc4ccc5ncccc5c4)c3n2)cn1 [PF04217903] (first compound 0.02 µM, partner dose 1 µM)",91.5,93.6,95.8,89.3,88.2,100,98.2,95.6,102,83.7
"COc1cc([C@@H]2c3cc4c(cc3[C@@H](O[C@@H]3O[C@@H]5CO[C@@H](C)O[C@H]5[C@H](O)[C@H]3O)[C@H]3COC(=O)[C@H]23)OCO4)cc(OC)c1O [etoposide] + CN(NC(=O)CC(=O)NN(C)C(=S)c1ccccc1)C(=S)c1ccccc1 [STA4783] (first compound 0.02 µM, partner dose 0.006 µM)",90.6,92.5,106,67.8,83,98.6,77.5,108,72.6,91.3
"Cn1cnc2c(F)c(Nc3ccc(Br)cc3Cl)c(C(=O)NOCCO)cc21 [selumetinib] + O=C(CCCCCCC(=O)Nc1ccccc1)NO [vorinostat] (first compound 0.015 µM, partner dose 0.08 µM)",97.8,96.7,109,102,95.5,82.5,79.1,123,73.7,76.5
"CCN(CC)CCNC(=O)c1c(C)[nH]c(/C=C2\C(=O)Nc3ccc(F)cc32)c1C [sunitinib] + Cc1ccc(NC(=O)c2cccc(N(C)C)c2)cc1NC(=O)c1ccc(O)cc1 [ZM336372] (first compound 0.4 µM, partner dose 2 µM)",85,96.1,107,130,103,104,77.4,110,111,91.6
"COc1cc([C@@H]2c3cc4c(cc3[C@@H](O[C@@H]3O[C@@H]5CO[C@@H](C)O[C@H]5[C@H](O)[C@H]3O)[C@H]3COC(=O)[C@H]23)OCO4)cc(OC)c1O [etoposide] + O=C(O)c1ccc(-c2c[nH]c3ncc(-c4ccccc4)cc23)cc1C1CCCC1 [GSK650394] (first compound 0.02 µM, partner dose 0.16 µM)",82.1,92.1,102,72.9,85.7,86.3,96.8,102,80.6,60.9
"COc1cc([C@@H]2c3cc4c(cc3[C@@H](O[C@@H]3O[C@@H]5CO[C@@H](C)O[C@H]5[C@H](O)[C@H]3O)[C@H]3COC(=O)[C@H]23)OCO4)cc(OC)c1O [etoposide] + COc1cc(N2CCC(N3CCN(C)CC3)CC2)ccc1Nc1ncc(Cl)c(Nc2ccccc2S(=O)(=O)C(C)C)n1 [NVP-TAE684] (first compound 0.02 µM, partner dose 0.08 µM)",97.9,89.1,101,101,96.6,92.8,83.7,90.8,91.2,87.7
